{
  "source": "the RNAGym collection of RNA variant scans (doi:10.7554/elife.90254)",
  "parents": {"B1": {"name": "LINE1-mini (parent)", "chain": "GGCAGAGCUCAACACAGCGUGGCAAAGUGGCUGUGGCUAGACUGCC"}},
  "note": "Read counts are not given, so values of variants with three or more changes are uncertain.",
  "data": [
    {"variants_of": "B1", "assay": "self-cleavage, relative activity (ratio to wild type); higher = more cleavage; in vitro, sequencing; the parent is a self-cleaving ribozyme", "values": [
      {"variant": "C8A A11G A24C C31U A39G", "self-cleavage": 0.02},
      {"variant": "C8A A11G A14U", "self-cleavage": 0.04},
      {"variant": "C8A A12C A24G C46A", "self-cleavage": 0.06},
      {"variant": "G7U G22U C31U", "self-cleavage": 0.13},
      {"variant": "G7U U20G U38C G44A", "self-cleavage": 0.02},
      {"variant": "C8A A11G G35A G44A", "self-cleavage": 0.01},
      {"variant": "C8A A12C G19A A25C U34A G44A C46A", "self-cleavage": 0.01},
      {"variant": "G7U G17C G30C U43A C46G", "self-cleavage": 0.21},
      {"variant": "G7U G22U U32A", "self-cleavage": 0.13},
      {"variant": "G7U G19A C37A", "self-cleavage": 0.01},
      {"variant": "G7U G21A C23U U28A G33A", "self-cleavage": 0.07},
      {"variant": "C8A A12U G36U", "self-cleavage": 0.22},
      {"variant": "G7U G17U C18A G19A G40C", "self-cleavage": 0.22},
      {"variant": "G7U G27A G36A U43A C46A", "self-cleavage": 0.94},
      {"variant": "G7U G22U G44A", "self-cleavage": 0.03},
      {"variant": "G7U G21C C46U", "self-cleavage": 0.23},
      {"variant": "G7U U9C A16G G19U A25U C31A", "self-cleavage": 0},
      {"variant": "G7U G21A C23A", "self-cleavage": 0.03},
      {"variant": "G7U G29U G30U", "self-cleavage": 0.12},
      {"variant": "G7U G17U G21A G33A G35C", "self-cleavage": 0.32},
      {"variant": "G7U G17C G40U A41C", "self-cleavage": 0.14},
      {"variant": "G7U G22U C23A G29A", "self-cleavage": 0.03},
      {"variant": "C8A A11G A12U", "self-cleavage": 0.02},
      {"variant": "G7U G27A G36A", "self-cleavage": 0.04},
      {"variant": "C8A A11U G21C", "self-cleavage": 0.03},
      {"variant": "C8A A11C G29A U38A", "self-cleavage": 0.01},
      {"variant": "C8A A12C G30A C37A", "self-cleavage": 0.01},
      {"variant": "G7U U9C C10A G17C U43C C46A", "self-cleavage": 0.05},
      {"variant": "G7U G19U A26C G27U U28G U38C", "self-cleavage": 0.01},
      {"variant": "G7U U28A C46G", "self-cleavage": 0.05},
      {"variant": "C8A A12C G29C", "self-cleavage": 0.04},
      {"variant": "C8A A11U G27A", "self-cleavage": 0.03},
      {"variant": "G7U G35C G36A G40C A41C C46A", "self-cleavage": 0.02},
      {"variant": "G7U U9G A11G G17C", "self-cleavage": 0.02},
      {"variant": "G7U U34G C42U", "self-cleavage": 0.07},
      {"variant": "C8A A12C A25U", "self-cleavage": 0.01},
      {"variant": "C8A A12C A25G", "self-cleavage": 0.08},
      {"variant": "G7U G27A U28A", "self-cleavage": 0.07},
      {"variant": "C8A A11U C18G G40C", "self-cleavage": 0.01},
      {"variant": "G7U G33A U34G", "self-cleavage": 0.03},
      {"variant": "G7U G33A U34A", "self-cleavage": 0.05},
      {"variant": "G7U G19A G22C", "self-cleavage": 0.03},
      {"variant": "G7U G19A G22A", "self-cleavage": 0.03},
      {"variant": "G7U G22A A26G U28A", "self-cleavage": 0.21},
      {"variant": "G7U G33U G36C", "self-cleavage": 0.03},
      {"variant": "G7U U9C A11C", "self-cleavage": 0},
      {"variant": "G7U U9G A16G", "self-cleavage": 0.03},
      {"variant": "C8A A11G C31A", "self-cleavage": 0.02},
      {"variant": "C8A A12U C42U", "self-cleavage": 0.03},
      {"variant": "C8A A11U A16U G21U C42G", "self-cleavage": 0.01},
      {"variant": "C8A A12U C13U C23A G44A", "self-cleavage": 0.07},
      {"variant": "G7U G27A G33C", "self-cleavage": 0.13},
      {"variant": "G7U U9G C13U C18A G30U", "self-cleavage": 0.15},
      {"variant": "G7U G17U G21A G22U A25U", "self-cleavage": 0.06},
      {"variant": "G7U G22C G36U", "self-cleavage": 0.04},
      {"variant": "G7U G19U G21U", "self-cleavage": 0.02},
      {"variant": "C8A A12U U28G G29U", "self-cleavage": 0.13},
      {"variant": "C8A A12U A16U G36U", "self-cleavage": 0.04},
      {"variant": "G7U G30U G40A", "self-cleavage": 0.47},
      {"variant": "G7U G19U G21A G22A A24U", "self-cleavage": 0.04},
      {"variant": "G7U G22U C23U A25G U28G G30U G40U", "self-cleavage": 0.01},
      {"variant": "G7U G29U G35A", "self-cleavage": 0.1},
      {"variant": "G7U G27C G35U A39U", "self-cleavage": 0.21},
      {"variant": "G7U U9G C10U G44C", "self-cleavage": 0.05},
      {"variant": "G7U U9A U28A", "self-cleavage": 0.08},
      {"variant": "G7U G29A G36U A39C", "self-cleavage": 0},
      {"variant": "C8A A12G C15A A26C G29U A41G", "self-cleavage": 0.06},
      {"variant": "G7U G17C G21U C31U", "self-cleavage": 0.01},
      {"variant": "G7U U9A G22U", "self-cleavage": 0.08},
      {"variant": "G7U G19A G29U", "self-cleavage": 0.04},
      {"variant": "G7U G22U G30U C46U", "self-cleavage": 0.04},
      {"variant": "C8A A12U C37G", "self-cleavage": 0.09},
      {"variant": "G7U U43A C46A", "self-cleavage": 0.24},
      {"variant": "G7U G17U C18A G21C C45A", "self-cleavage": 0.04},
      {"variant": "G7U G17U G40U", "self-cleavage": 0.15},
      {"variant": "G7U G19C G36A", "self-cleavage": 0.12},
      {"variant": "C8A A11G G40A", "self-cleavage": 0.01},
      {"variant": "C8A A12G G22A A39G", "self-cleavage": 0.04},
      {"variant": "G7U G27C A41U", "self-cleavage": 0.06},
      {"variant": "G7U U9G G22C G29C C42A", "self-cleavage": 0.01},
      {"variant": "G7U U9A U32C", "self-cleavage": 0.15},
      {"variant": "G7U G17C G19C C37U", "self-cleavage": 0.01},
      {"variant": "G7U G35C U38C G44U", "self-cleavage": 0.07}
    ]}
  ]
}
